{"source": "PubChem BioAssay AID894", "about": "(National Center for Advancing Translational Sciences (NCATS), 2007)", "note": "Where “and” joins values, the source holds several entries; their conditions need not be identical. Identical values can stand only once. Out of some 150,000 compounds screened, about 6,500 (4.3%) were called active. This list was built around the results that the source calls inconclusive (neither active nor inactive); the mix of calls is not that of the screen. The call rests on the fitted dose curve; in most records, active means well fitted inhibition curve with a large enough effect (not every such curve was filed as active); inconclusive means small, poorly fitted or top-dose-only effect, or another doubt; inactive means no such curve, though single readings can be large or run the other way. Potencies beside an inconclusive call are fits to weak or partial responses and may not hold up. On the % scale 0 is the no-effect control and ±100 the full control effect; potency means the concentration at half of the fitted maximal effect; tags describe the fitted curve by direction and shape.", "data": [{"biological_target": "15-hydroxyprostaglandin dehydrogenase [NAD(+)] (Homo sapiens) (UniProt P15428)", "sequence (P15428 whole entry, looked up)": "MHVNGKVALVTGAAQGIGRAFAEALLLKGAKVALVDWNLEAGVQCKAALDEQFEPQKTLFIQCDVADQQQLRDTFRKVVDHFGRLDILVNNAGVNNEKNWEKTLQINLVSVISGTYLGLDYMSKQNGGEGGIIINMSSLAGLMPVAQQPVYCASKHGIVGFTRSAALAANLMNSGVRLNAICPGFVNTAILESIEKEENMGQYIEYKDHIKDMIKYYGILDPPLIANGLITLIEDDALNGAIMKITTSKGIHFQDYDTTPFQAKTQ", "assay": "qHTS Assay for Inhibitors of HPGD (15-Hydroxyprostaglandin Dehydrogenase)", "details": "purified HPGD, NADH fluorescence kinetic, PGE2 substrate; activity change, negative = inhibition: stronger effect = lower value", "how_it_was_run": "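NADH formation kinetics: reaction with 30 uM PGE2 and 1 mM NAD+ (final), 20 nM enzyme, Tris-HCl pH 8 with Tween 20, after 15 min compound preincubation at room temperature. Fluorescence change, last versus first of five reads.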", "values": [{"compound": "COc1ccc(OC)c(S(=O)(=O)NC2CCN(Cc3ccccc3)CC2)c1", "activity change, negative = inhibition": "inactive: -8.09%"}, {"compound": "CCCCC(=O)OCc1cn(-c2ccc(Cl)cc2)nn1", "Potency": "inconclusive: 31.6 µM [inhibitor, partial curve]"}, {"compound": "CC1(C)CC(=O)C2=C(C1)N(CCN1CCOCC1)C1=C(C(=O)CC(C)(C)C1)C2c1cccc(F)c1", "Potency": "inconclusive: 25.1 µM [inhibitor, partial curve]"}, {"compound": "CCOC(=O)c1ccc(-c2ccc(C3Nc4ccccc4C(=O)N3O)o2)cc1", "note": "(configuration not stated)", "Potency": "inconclusive: 39.8 µM [inhibitor, single point]"}, {"compound": "O=C(Nc1nccs1)c1ccc(-c2ccccc2Cl)o1", "Potency": "inconclusive: 10 µM [inhibitor, partial curve]"}, {"compound": "C=CCc1ccccc1OCCn1ccnc1", "activity change, negative = inhibition": "inactive: -15%"}, {"compound": "CCS(=O)(=O)Nc1c(C(=O)O)[nH]c2ccccc12", "Potency": "inconclusive: 28.2 µM [inhibitor, partial curve]"}, {"compound": "Cc1cc2cc(CNC(=O)C3CC3)ccc2n1C", "Potency": "inconclusive: 25.1 µM [inhibitor, partial curve, poor fit]"}, {"compound": "CC(C)C(=O)c1cc2c(cc1NC(=O)c1cccs1)OCCO2", "Potency": "inconclusive: 28.2 µM [inhibitor, partial curve]"}, {"compound": "CCN(CC)c1ccc2c(Cl)cc(=O)oc2c1", "Potency": "inconclusive: 31.6 µM [inhibitor, partial curve]"}, {"compound": "N#CCCS(=O)(=O)c1nnnn1-c1ccccc1", "Potency": "inconclusive: 25.1 µM [inhibitor, partial curve]"}, {"compound": "Cc1ccc(C(=O)CC2(O)C(=O)N(Cc3ccc4c(c3)OCO4)c3ccccc32)cc1", "note": "(configuration not stated)", "activity change, negative = inhibition": "inactive: -17.8%"}, {"compound": "COc1ccc(-c2cc(C(=O)N/N=C/c3sccc3C)c3ccccc3n2)c(OC)c1", "Potency": "inconclusive: 28.2 µM [inhibitor, partial curve]"}, {"compound": "CC(=O)N1CCC2(CC1)CCN(c1ccc(-c3ccccc3)cc1)CC2", "Potency": "inconclusive: 28.2 µM [inhibitor, partial curve]"}, {"compound": "CCCCNS(=O)(=O)c1ccc(S(=O)(=O)NCc2ccncc2)cc1", "activity change, negative = inhibition": "inactive: 2.06%"}, {"compound": "CCOc1ccc(N(CC(=O)Nc2ccc(OC)cc2)S(=O)(=O)c2c(C)noc2C)cc1", "activity change, negative = inhibition": "inactive: -7.72%"}, {"compound": "COc1ccc(/C=C2\\C(=O)NC(=S)N2C(=O)c2ccc(C)cc2)cc1", "Potency": "inconclusive: 17.8 µM [inhibitor, partial curve]"}, {"compound": "O=C(c1cccnc1)N1CCN(C(=O)c2ccco2)CC1", "activity change, negative = inhibition": "inactive: -19%"}, {"compound": "CCOC(=O)NC1(NCC(C)C)Oc2ccccc2O1", "activity change, negative = inhibition": "inactive: -5.99%"}, {"compound": "O=C(O)c1ccc(CSc2nc(-c3ccc(Cl)cc3)cc(C(F)(F)F)n2)cc1", "Potency": "active: 12.6 µM"}, {"compound": "O=[N+]([O-])c1ccccc1/C=C/C=N/n1c(-c2ccccc2)n[nH]c1=S", "Potency": "active: 7.08 µM"}, {"compound": "CCc1ccc(C2C(C#N)=C(N)SC(N)=C2C#N)s1", "Potency": "active: 28.2 µM"}, {"compound": "COCCNC(=O)/C(C#N)=C/c1ccc(-c2ccc(S(=O)(=O)N3CCOCC3)cc2)o1", "Potency": "inconclusive: 28.2 µM [inhibitor, partial curve]"}, {"compound": "c1ccc(-c2cnc(-c3cccnc3)o2)cc1", "Potency": "inconclusive: 28.2 µM [inhibitor, partial curve]"}, {"compound": "CCOC(=O)C1CCCN(CCC(C)c2ccccc2)C1", "note": "(configuration not stated)", "activity change, negative = inhibition": "inactive: 5.68%"}, {"compound": "Clc1ccc(/C=C/c2nc3ccccc3[nH]2)c(Cl)c1", "Potency": "inconclusive: 3.55 µM [inhibitor, full curve]"}, {"compound": "O=C(Nc1ccc(Br)cn1)c1cccc(-c2cc3ccccc3oc2=O)c1", "Potency": "inconclusive: 28.2 µM [inhibitor, partial curve]"}, {"compound": "Cc1ccc(S(=O)(=O)/N=C(\\CCl)N2CCOCC2)cc1", "activity change, negative = inhibition": "inactive: -16.8%"}, {"compound": "COc1ccccc1Oc1c(C)oc2c(CN3CCN(C)CC3)c(O)ccc2c1=O", "Potency": "inconclusive: 28.2 µM [inhibitor, partial curve]"}, {"compound": "O=C(NC1CCCC1)c1nc2c(nnn2Cc2ccccc2Cl)c(=O)[nH]1", "Potency": "inconclusive: 12.6 µM [inhibitor, partial curve]"}, {"compound": "O=C(CSc1ccc(-c2nc3ccccc3[nH]2)cn1)N1CCN(C(=O)c2ccco2)CC1", "Potency": "inconclusive: 35.5 µM [inhibitor, partial curve]"}, {"compound": "COc1ccc(C2CC(=O)N3CN(Cc4ccco4)CSC3=C2C#N)cc1", "note": "(configuration not stated)", "Potency": "active: 12.6 µM"}, {"compound": "O=C(/C=C/c1ccc(Cl)cc1)N1CCN(c2ccccc2[N+](=O)[O-])CC1", "activity change, negative = inhibition": "inactive: -15%"}, {"compound": "Cc1ccc(S(=O)(=O)N(C)CC(=O)N2CCN(c3ccccn3)CC2)cc1", "activity change, negative = inhibition": "inactive: -11.3%"}, {"compound": "O=C(N/N=C/c1ccc([N+](=O)[O-])s1)c1ccccc1Br", "activity change, negative = inhibition": "inactive: -20.5%"}, {"compound": "Cc1ccc(S(=O)(=O)N2CCN(C(=O)Cc3ccc4c(c3)OCCO4)CC2)cc1C", "activity change, negative = inhibition": "inactive: -11.1%"}, {"compound": "CCc1oc2ccccc2c1C(=O)CCN1CCCCC1", "Potency": "active: 28.2 µM"}, {"compound": "COC(=O)c1cc(Cc2ccc(N)c(C(=O)OC)c2)ccc1N", "Potency": "inconclusive: 20 µM [inhibitor, partial curve]"}, {"compound": "O=C(c1cnccn1)N1CCN(c2ccccc2)CC1", "activity change, negative = inhibition": "inactive: -4.81%"}, {"compound": "Cc1ncc(CO)c(/C=N/NC(=O)c2ccc(O)cc2)c1O", "Potency": "inconclusive: 28.2 µM [inhibitor, partial curve]"}, {"compound": "CC1=C(C(=O)Nc2ccccc2)C(c2ccc3c(c2)OCO3)C2=C(CCCC2=O)N1", "note": "(configuration not stated)", "Potency": "inconclusive: 28.2 µM [inhibitor, partial curve]"}, {"compound": "Cn1c(N)c(C(=O)COC(=O)CSc2ccccc2)c(=O)n(C)c1=O", "Potency": "inconclusive: 39.8 µM [inhibitor, partial curve]"}, {"compound": "COCCN1Cc2cccc(C(=O)NCc3ccccc3OC)c2C1=O", "activity change, negative = inhibition": "inactive: -4.55%"}, {"compound": "Cc1cc(-c2ccccc2)n(-c2ccc(C(N)=O)cc2)n1", "Potency": "active: 31.6 µM"}, {"compound": "CC(=O)O[C@@H]1CC2C(C)(C)C(=O)C=C[C@]2(C)C2CC[C@]3(C)C(=CC[C@H]3C3CO[C@@H](C(C)(C)O)[C@H](O)C3)[C@@]21C", "note": "(some centres not stated)", "activity change, negative = inhibition": "inactive: -8.6%"}, {"compound": "CCC1CCCCN1S(=O)(=O)c1ccc(NC(=O)CSc2ncccc2C(=O)O)cc1", "note": "(configuration not stated)", "Potency": "active: 14.1 µM"}, {"compound": "N[C@H](C(=O)O)c1ccc(C(=O)O)c(O)c1", "Potency": "inconclusive: 35.5 µM [inhibitor, partial curve]"}, {"compound": "CCOc1cc(OCC)cc(C(=O)Nc2cccnc2)c1", "activity change, negative = inhibition": "inactive: -1.86%"}, {"compound": "COc1ccc2c3c(ccc2c1)N[C@H](C(=O)O)CC3", "Potency": "inconclusive: 3.98 µM [inhibitor, partial curve]"}, {"compound": "CC(Oc1ccc(Cl)cc1Cl)C(=O)NC1CCSC1=O", "note": "(configuration not stated)", "Potency": "active: 14.1 µM"}, {"compound": "COc1ccc(-c2nc(-c3cccc(C)c3)nc(Cl)c2C#N)cc1", "Potency": "inconclusive: 17.8 µM [inhibitor, partial curve, poor fit]"}, {"compound": "O=C1CCCCC1C(Nc1ccc(Cl)cc1)c1ccccc1", "note": "(configuration not stated)", "Potency": "inconclusive: 35.5 µM [inhibitor, single point]"}, {"compound": "Cn1nc(C(=O)NCc2ccccc2)c2ccccc2c1=O", "activity change, negative = inhibition": "inactive: -12.9%"}, {"compound": "Cc1cc(S(=O)(=O)N2CCCC2)ccc1OCC(=O)NCc1ccco1", "Potency": "inconclusive: 35.5 µM [inhibitor, partial curve]"}, {"compound": "CC(=O)Nc1cccc(C(=O)/C=C/c2ccco2)c1", "Potency": "inconclusive: 39.8 µM [inhibitor, partial curve]"}, {"compound": "CCOc1ccc(-c2c(C(=O)N/N=C/c3ccc(OC)cc3)nnn2-c2nonc2N)cc1", "Potency": "inconclusive: 35.5 µM [inhibitor, single point]"}, {"compound": "c1ccc(-c2c(-c3ccccc3)n(Cc3ccco3)c3ncnc(NCCCn4ccnc4)c23)cc1", "Potency": "inconclusive: 31.6 µM [inhibitor, partial curve]"}, {"compound": "CCOC(=O)C(=O)/C(=C\\N(C)C)c1onc(-c2c(F)cccc2Cl)c1C(=O)OC", "Potency": "active: 10 µM"}, {"compound": "COCCn1c(N)c(C(=O)NCC2CCCO2)c2nc3ccccc3nc21", "note": "(configuration not stated)", "Potency": "inconclusive: 11.2 µM [inhibitor, partial curve]"}, {"compound": "COc1cccc(/C=N/n2c(-c3cccs3)n[nH]c2=S)c1", "Potency": "active: 2.24 µM"}, {"compound": "CCOC(=O)c1[nH]c(C)c(C(=O)c2ccc(C)cc2)c1C", "Potency": "inconclusive: 39.8 µM [inhibitor, single point]"}, {"compound": "Cc1ccc(-n2c(N)c(C#N)c(-c3ccc(Cl)cc3)c(C#N)c2=O)cc1", "Potency": "inconclusive: 31.6 µM [inhibitor, partial curve]"}, {"compound": "CC1C(=O)CC(c2ccco2)NC1c1ccco1", "note": "(configuration not stated)", "Potency": "inconclusive: 22.4 µM [inhibitor, partial curve]"}, {"compound": "Cn1c(-c2cc(Br)ccc2O)n[nH]c1=S", "Potency": "active: 14.1 µM"}, {"compound": "Cc1cc(C)c2c(n1)nn1c(N3CCN(Cc4ccccc4)CC3)cc(C)nc21", "Potency": "inconclusive: 31.6 µM [inhibitor, partial curve]"}, {"compound": "Cc1cccc(-n2c(N)c(C(=O)N3CCN(C)CC3)sc2=S)c1", "Potency": "active: 10 µM"}, {"compound": "O=C(CSc1nc2ccccc2c(=O)n1-c1ccccc1)NCc1ccc2c(c1)OCO2", "activity change, negative = inhibition": "inactive: -12.8%"}, {"compound": "CC(CC1CC(C)(C)OC1=O)C(=O)Nc1ccc([N+](=O)[O-])cc1", "note": "(configuration not stated)", "Potency": "inconclusive: 39.8 µM [inhibitor, partial curve]"}, {"compound": "COc1ccccc1-c1cc(C(=O)N/N=C/c2ccc(C)s2)c2ccccc2n1", "Potency": "inconclusive: 39.8 µM [inhibitor, single point]"}, {"compound": "C=CCn1c(=N)c(C#N)cc2c(=O)n3ccccc3nc21", "Potency": "inconclusive: 31.6 µM [inhibitor, partial curve]"}, {"compound": "CCOC(=O)N1CCN(S(=O)(=O)c2ccc(C(=O)Nc3nnc(CSC)o3)cc2)CC1", "activity change, negative = inhibition": "inactive: -7.35%"}, {"compound": "CC(C)NNC(=O)c1ccncc1", "Potency": "inconclusive: 20 µM [inhibitor, partial curve] and inconclusive: 15.8 µM [inhibitor, partial curve] and inconclusive: 31.6 µM [inhibitor, partial curve]"}]}]}
